{
  "source": "PubChem BioAssay AID2100",
  "about": "(National Center for Advancing Translational Sciences (NCATS), 2009)",
  "note": "The whole screen tested about 300,000 compounds, of which about 1,200 (0.4%) were called active. The shares of active, inactive and inconclusive entries below differ from those in the screen. Calls come from the whole dose curve; as a rule, active = well fitted inhibition curve with a large enough effect; inconclusive = small, poorly fitted or top-dose-only effect, or another doubt; inactive = no such curve, though single readings can be large or run the other way. Potencies of inconclusive entries are doubtful fits and often do not repeat. Potency is the fitted concentration of half-maximal effect.",
  "data": [
    {"biological_target": "Lysosomal alpha-glucosidase (Homo sapiens) (UniProt P10253)", "assay": "qHTS Assay for Inhibitors and Activators of Human alpha-Glucosidase Cleavage of Glycogen;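 for activity change, negative = inhibition: 0% = full enzyme reaction and -100% = no-enzyme basal signal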", "conditions": "recombinant GAA, glycogen substrate, Amplex Red glucose oxidase fluorescence; activity change, negative = inhibition: at 76.4 µM (top of the series) unless noted", "method_in_brief": "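Natural-substrate format: glycogen cleavage by 4 nM human enzyme, glucose read by Amplex Red coupling (Ex 573, Em 610 nm). Normalized to enzyme and no-enzyme controls.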", "values": [
      {"smiles": "COCCCN1C(=O)C(=O)/C(=C(/O)c2ccc(OC)cc2)C1c1ccc(O)c(OC)c1", "note": "(centres undefined)", "Potency": "inconclusive: 25.1 µM [inhibitor, partial curve]"},
      {"smiles": "COc1ccccc1C(O)(C(=O)NNc1cccc(C)c1)c1ccccc1OC", "Potency": "inconclusive: 25.1 µM [inhibitor, partial curve]"},
      {"smiles": "Cc1cc(-c2nc(C)c(C(=O)NNS(=O)(=O)c3cccc(C(F)(F)F)c3)s2)no1", "Potency": "inconclusive: 10 µM [inhibitor, partial curve]"},
      {"smiles": "O=C(NC1CCCC1)C(c1ccncc1)N(Cc1cccs1)C(=O)c1csnn1", "note": "(centres undefined)", "Potency": "active: 19.8 µM"},
      {"smiles": "Cc1ccc(S(=O)(=O)NCC(=O)OCC(=O)Nc2ncc(Cl)cc2Cl)cc1", "Potency": "inconclusive: 6.31 µM [inhibitor, single point]"},
      {"smiles": "O=C(CN1C(=O)/C(=C/c2ccco2)SC1=S)NC1CCS(=O)(=O)C1", "note": "(centres undefined)", "Potency": "inconclusive: 44.7 µM [inhibitor, single point]"},
      {"smiles": "CCOc1ccc(CCNC(=O)c2ccc(Cn3c(=O)c4cccn4c4cccnc43)cc2)cc1", "activity change, negative = inhibition": "inactive: -0.407% [at 76.3 µM]"},
      {"smiles": "COc1ccc(/C=N\\NC(=O)C2=NNC(=O)C2C)cc1", "note": "(centres undefined)", "Potency": "active: 28 µM"},
      {"smiles": "Cc1cccc(NC(=S)NNC(=S)NCc2ccccc2)c1", "Potency": "active: 7.94 µM"},
      {"smiles": "N#CC1C(C#N)N2CCCN2C1c1ccc(Cl)cc1", "note": "(centres undefined)", "Potency": "inconclusive: 39.5 µM [inhibitor, single point]"},
      {"smiles": "COc1ccc(NC(=O)C2C3CCC(O3)C2C(=O)O)cc1OC", "note": "(centres undefined)", "Potency": "inconclusive: 50.1 µM [inhibitor, single point]"},
      {"smiles": "N#CC1=C(SCC(=O)Nc2cccc3cccnc23)NC(=O)C(C#N)C12CCCCC2", "note": "(centres undefined)", "Potency": "inconclusive: 24.9 µM [inhibitor, partial curve]"},
      {"smiles": "Cc1ccc(C)c(NC(=O)C2CCCN(S(=O)(=O)c3cccc4nsnc34)C2)c1", "note": "(centres undefined)", "activity change, negative = inhibition": "inactive: -5.46% [at 76.3 µM]"},
      {"smiles": "O=C(O)C1CC=CCC1C(=O)NNc1ccccc1", "note": "(centres undefined)", "Potency": "inconclusive: 28.2 µM [inhibitor, partial curve]"},
      {"smiles": "CCOC(=O)c1sc(Nc2nc3c(OC)cccc3s2)cc1C", "Potency": "inconclusive: 20 µM [inhibitor, partial curve]"},
      {"smiles": "COc1cc(-c2nc3ccccn3c2/N=C/c2cc(OC)c(O)cc2Cl)ccc1O", "Potency": "inconclusive: 35.5 µM [inhibitor, single point]"},
      {"smiles": "CN1Cc2sc(N)c(C#N)c2CC1(C)C", "Potency": "inconclusive: 28 µM [activator, single point]"},
      {"smiles": "Oc1ccc(-c2csc(-c3ccccc3)n2)cc1O", "Potency": "active: 11.1 µM"},
      {"smiles": "COc1ccc(Nc2ccncc2[N+](=O)[O-])cc1", "Potency": "inconclusive: 39.5 µM [inhibitor, single point]"}
    ]}
  ]
}
